According to US20240358826A1 (ORIONIS BIOSCIENCES, published 2024):

Tests used:
Test in all cases: cell-based or functional assay
IL-1R (IL-1 Receptor) [1] = target: T1, IL-1R (IL-1 Receptor) (UniProt P14778 18-569, limits assumed)
T1 sequence (looked up): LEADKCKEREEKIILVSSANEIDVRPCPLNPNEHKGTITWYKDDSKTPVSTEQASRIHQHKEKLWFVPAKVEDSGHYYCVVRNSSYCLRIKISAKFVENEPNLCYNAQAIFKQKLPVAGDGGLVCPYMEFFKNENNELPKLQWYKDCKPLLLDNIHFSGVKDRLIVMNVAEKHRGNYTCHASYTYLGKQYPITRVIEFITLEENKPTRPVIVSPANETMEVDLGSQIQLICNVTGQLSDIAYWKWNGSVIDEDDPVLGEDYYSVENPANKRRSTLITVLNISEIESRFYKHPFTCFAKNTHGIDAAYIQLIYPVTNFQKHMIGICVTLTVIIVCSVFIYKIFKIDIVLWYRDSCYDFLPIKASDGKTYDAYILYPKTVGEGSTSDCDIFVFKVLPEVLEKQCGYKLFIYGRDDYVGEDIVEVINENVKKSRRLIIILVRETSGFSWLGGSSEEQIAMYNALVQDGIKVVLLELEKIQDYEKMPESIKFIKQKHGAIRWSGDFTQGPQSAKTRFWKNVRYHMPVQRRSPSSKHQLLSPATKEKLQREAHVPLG

IL-1R (IL-1 Receptor) [2] = target: T1, IL-1R (IL-1 Receptor); remark: listed apart in the source
IL-1R (IL-1 Receptor) [3] = target: T1, IL-1R (IL-1 Receptor); remark: listed apart in the source
human CD8 alpha [4] = target: T2, human CD8 alpha (human, UniProt P01732 22-235)
human CD8 alpha [5] = target: T2, human CD8 alpha; remark: listed apart in the source
T2 sequence (P01732 22-235): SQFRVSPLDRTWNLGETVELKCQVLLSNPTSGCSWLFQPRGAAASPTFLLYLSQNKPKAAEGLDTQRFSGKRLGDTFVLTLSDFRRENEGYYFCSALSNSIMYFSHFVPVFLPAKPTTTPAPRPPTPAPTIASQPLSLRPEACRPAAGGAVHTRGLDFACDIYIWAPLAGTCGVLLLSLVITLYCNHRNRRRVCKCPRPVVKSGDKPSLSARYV

human CD8 alpha [6] = target: T2, human CD8 alpha; remark: listed apart in the source
human NKp46 = target: T3, human NKp46 (human, UniProt O76036 22-304)
T3 sequence (looked up): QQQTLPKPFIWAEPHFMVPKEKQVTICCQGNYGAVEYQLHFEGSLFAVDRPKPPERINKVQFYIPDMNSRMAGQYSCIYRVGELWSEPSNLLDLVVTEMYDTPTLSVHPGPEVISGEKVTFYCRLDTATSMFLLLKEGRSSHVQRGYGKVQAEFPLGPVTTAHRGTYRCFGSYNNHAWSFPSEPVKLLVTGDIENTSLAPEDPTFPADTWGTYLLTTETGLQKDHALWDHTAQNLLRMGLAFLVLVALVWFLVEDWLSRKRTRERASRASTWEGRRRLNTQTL

B1: CD8 VHH_5GGS_Fc_hole + Fc-knob_20GGS_IL1α delta 1-6_C141S (Fc fusion)
chain 1: DVQLQESGGGLVQPGGSLRLSCAASGSIFSINVMGWYRQTPGKERELVAKITNFGITSYADSAQGRFTISRGNAKNTVYLQMNSLKPEDTAVYYCNLDTTGWGPPPYQYWGQGTQVTVSSGGSGGSGGSGGSGGSDKTHTCPPCPAPEAAGGPSVFLFPPKPKDTLMISRTPEVTCVVVDVSHEDPEVKFNWYVDGVEVHNAKTKPREEQYNSTYRVVSVLTVLHQDWLNGKEYKCQVSNKALPAPIEKTISKAKGQPREPQVCTLPPSRDELTKNQVSLSCAVKGFYPSDIAVEWESNGQPENNYKTTPPVLDSDGSFFLVSKLTVDKSRWQQGNVFSCSVMHEALHNHYTQKSLSLSPGK
chain 2: [letters of human IgG1 Fc with changes not shown]GGSGGSGGSGGSGGSGGSGGSGGSGGSGGSGGSGGSGGSGGSGGSGGSGGSGGSGGSGGSLSNVKYNFMRIIKYEFILNDALNQSIIRANDQYLTAAALHNLDEAVKFDMGAYKSSKDDAKITVILRISKTQLYVTAQDEDQPVLLKEMPEIPKTITGSETNLLFFWETHGTKNYFTSVAHPNLFIATKQDYWVSLAGGPPSITDFQILENQA
- EC50 mock transfected (NF-KB reporter, HEK293T) (IL-1R (IL-1 Receptor) [1]): 569 ng/mL
- EC50 parental cell line (SEAP, HekBlue-IL-1β) (IL-1R (IL-1 Receptor) [2]): 290 ng/mL
- NF-KB signal, -CD8 cells, 1 ng/ml (IL-1R (IL-1 Receptor) [3]): 0.02 rel. to 100 ng/ml IL1α
- NF-KB signal, -CD8 cells, 10 ng/ml (IL-1R (IL-1 Receptor) [3]): 0.02 rel. to 100 ng/ml IL1α
- NF-KB signal, -CD8 cells, 100 ng/ml (IL-1R (IL-1 Receptor) [3]): 0.17 rel. to 100 ng/ml IL1α
- NF-KB signal, -CD8 cells, 1000 ng/ml (IL-1R (IL-1 Receptor) [3]): 0.79 rel. to 100 ng/ml IL1α

B2: CD8 VHH_5GGS_Fc_hole + Fc-knob_20GGS_IL1α delta 1-6_C141A (Fc fusion)
chain 1: B1 chain 1
chain 2: [letters of human IgG1 Fc with changes not shown]GGSGGSGGSGGSGGSGGSGGSGGSGGSGGSGGSGGSGGSGGSGGSGGSGGSGGSGGSGGSLSNVKYNFMRIIKYEFILNDALNQSIIRANDQYLTAAALHNLDEAVKFDMGAYKSSKDDAKITVILRISKTQLYVTAQDEDQPVLLKEMPEIPKTITGSETNLLFFWETHGTKNYFTSVAHPNLFIATKQDYWVALAGGPPSITDFQILENQA
- EC50 CD8 transfected (NF-KB reporter, HEK293T) (human CD8 alpha [4]): 1.83 ng/mL
- Ratio (EC50 mock / CD8 transfected) (human CD8 alpha [4]): 1680
- EC50 mock transfected (NF-KB reporter, HEK293T) (IL-1R (IL-1 Receptor) [1]): 3080 ng/mL
- EC50 CD8 cell line (SEAP, HekBlue-IL-1β) (human CD8 alpha [5]): 3.3 ng/mL
- Ratio (EC50 parental / CD8 cell line) (human CD8 alpha [5]): 196
- EC50 parental cell line (SEAP, HekBlue-IL-1β) (IL-1R (IL-1 Receptor) [2]): 684 ng/mL

More lines, now with the values ahead:

- EC50, CD8+ HekBlue-IL-1β cells (SEAP) (human CD8 alpha [6]): ~0.5 ng/mL
B3: CD8 VHH_5GGS_Fc_hole + IL1a delta 1-6_20GGS_Fc-knob (Fc fusion)
chain 1: B1 chain 1
chain 2: LSNVKYNFMRIIKYEFILNDALNQSIIRANDQYLTAAALHNLDEAVKFDMGAYKSSKDDAKITVILRISKTQLYVTAQDEDQPVLLKEMPEIPKTITGSETNLLFFWETHGTKNYFTSVAHPNLFIATKQDYWVCLAGGPPSITDFQILENQAGGSGGSGGSGGSGGSGGSGGSGGSGGSGGSGGSGGSGGSGGSGGSGGSGGSGGSGGSGGS[letters of human IgG1 Fc with changes not shown]

- EC50, IFNγ induction on isolated NK cells (with 10 ng/ml hIL-12) (human NKp46): 1.2e-07 ng/mL
B4: NKp46 scFv (VL-VH)_5GGS_Fc_hole + Fc-knob_20GGS_IL1α delta 1-6_S31A_C141S (Fc fusion)
chain 1: DIQMTQTTSSLSASLGDRVTISCRASQDISNYLNWYQQKPDGTVKLLIYYTSRLHSGVPSRFSGSGSGTDYSLTINNLEQEDIATYFCQQGNTRPWTFGGGTKLEIKGGGGSGGGGSGGGGSQVQLQQSGPELVKPGASVKMSCKASGYTFTDYVINWGKQRSGQGLEWIGEIYPGSGTNYYNEKFKAKATLTADKSSNIAYMQLSSLTSEDSAVYFCARRGRYGLYAMDYWGQGTSVTVSSGGSGGSGGSGGSGGSDKTHTCPPCPAPEAAGGPSVFLFPPKPKDTLMISRTPEVTCVVVDVSHEDPEVKFNWYVDGVEVHNAKTKPREEQYNSTYRVVSVLTVLHQDWLNGKEYKCQVSNKALPAPIEKTISKAKGQPREPQVCTLPPSRDELTKNQVSLSCAVKGFYPSDIAVEWESNGQPENNYKTTPPVLDSDGSFFLVSKLTVDKSRWQQGNVFSCSVMHEALHNHYTQKSLSLSPGK
chain 2: [letters of human IgG1 Fc with changes not shown]GGSGGSGGSGGSGGSGGSGGSGGSGGSGGSGGSGGSGGSGGSGGSGGSGGSGGSGGSGGSLSNVKYNFMRIIKYEFILNDALNQAIIRANDQYLTAAALHNLDEAVKFDMGAYKSSKDDAKITVILRISKTQLYVTAQDEDQPVLLKEMPEIPKTITGSETNLLFFWETHGTKNYFTSVAHPNLFIATKQDYWVSLAGGPPSITDFQILENQA

Each block holds one binder with its values, some of them ahead of it.
